Laboratory results published in the supplement of paper PMC10126150.
Values marked as one replicate rest on one cluster of the flow cell; about a third of the high ones do not repeat.

Tested on: ATP
Experiment: switch fluorescence ratio, 500 uM ATP over buffer (Cy3 cluster intensity, sum of 5 cycles each) (fold (ratio)); higher = stronger signal-on switching upon ATP binding; sequences stand for … in TCGTCGGCAGCGTCAGATGTGTATAAGAGACAGTTTTTTTTTTTTTTTTTTTTTTTTT…TC
Settings: aptamer strand: ATP DNA aptamer (quencher-CACCTGGGGGAGTATTGCGGAGGAAGG + anchor), 100 nM annealed; ATP concentration: 500 uM; one replicate
In short: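 After annealing to 100 nM quencher-labelled ATP aptamer, Cy3-labelled switching-strand clusters on a modified Illumina MiSeq flow-cell were imaged in selection buffer. A second image followed after 15 min with 500 uM ATP at 22 °C, and five such buffer/ATP cycles were done, each separated by NaOH stripping and re-annealing. The fluorescence ratio, averaged per switch-domain sequence, is summed target-cycle over summed buffer-cycle Cy3 intensity per cluster, with clusters outside 100-1000 RFU excluded.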
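Note: ATP exposure 15 min at 22 °C before imaging.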

Row | Sequence | switch fluorescence ratio
1 | GTTTGTTGCA | 1
2 | GATAATGAGA | 0.991
3 | TTGACCTTGA | 1.03
4 | CAAAACTCGG | 0.992
5 | GACGCCAT | 1.41
6 | AACGTGAGCA | 1.05
7 | AGCGCAAGGG | 1.38
8 | TCTGATGCAT | 0.949
9 | TGATGTAGGT | 1.05
10 | CGCGTTGGAA | 1
11 | TCCCTTTTGT | 1.03
12 | AAAGTTATCA | 0.976
13 | ATTGCCGAAT | 0.981
14 | ATGTTCATAG | 1.02
15 | ATGCTATGGA | 0.979
16 | CTCAATGGCA | 0.98
17 | AACACTCGTT | 0.966
18 | TACGGCAGAC | 1.85
19 | CCGACAGGCT | 1.25
20 | TTGTTTACAT | 0.959
21 | AAGTTCGAGG | 1.03
22 | AGATTCGAC | 0.985
23 | AAGGAGCGCG | 1.06

Row | Sequence | switch fluorescence ratio
24 | CATGCCGGAC | 1.02
25 | GCCGGTCGCG | 1.02
26 | CATATTTAAG | 1.01
27 | AAAATGAAGC | 0.98
28 | CCATCCCTGA | 1
29 | CAGGATCGTT | 1
30 | CATCCCGTTA | 1.14
31 | ATAGACGTTG | 0.977
32 | AAACTCGCCG | 0.989
33 | CGCCATGGAG | 0.993
34 | GCATACTGAC | 1.49
35 | CCCATGCCGA | 1.03
36 | ACCAGAGCAA | 4.27
37 | GAACGTGGGA | 1.07
38 | GAATGTCCGA | 0.981
39 | GGAATTTATA | 0.983
40 | AATACTGGAG | 1.05
41 | AGCTGTCACC | 0.992
42 | CCGCGAAGTC | 4.05
43 | TATTTGGTG | 0.99
44 | GGTTGCGCG | 1
45 | TCTCGAGGCT | 1.06
46 | TCGCGTTTTA | 1.01

Row | Sequence | switch fluorescence ratio
47 | TTAAGAATCA | 0.998
48 | AGCCCTTTTA | 0.992
49 | ACAGGCAGTT | 0.993
50 | CGCATTCTGT | 1.1
51 | AAATTGAATG | 1.01
52 | CAATTAAATC | 1.01
53 | GAAGGTTGCA | 0.999
54 | CCCTTATAAT | 1.09
55 | GGGCTAGATT | 1.04
56 | AGATAGCCAC | 1.03
57 | AGTTCGTGCT | 1
58 | GAGGTTTGAT | 0.976
59 | TTTTCGAACG | 0.995
60 | CGGTAGCCCT | 1
61 | ACTAGTCTAG | 0.98
62 | AAGCACGCC | 1.2
63 | GCCGGGCGGC | 0.925
64 | GGAGTTAGAC | 1.08
65 | GCGCCGTCCG | 0.997
66 | CCGTCTGAC | 1.45
67 | ATTACGTCGT | 1.01
68 | TGGTGGTGGA | 0.984
69 | TTTACCACGA | 1.06

Row | Sequence | switch fluorescence ratio
70 | ACAGTTGAAT | 1.01
71 | CAACTTGGTT | 0.995
72 | ACACTAACGC | 1.2
73 | ATTCCGTAGG | 1.02
74 | GGAATCGCAC | 1.21
75 | CCTTTTAAGT | 1.44
76 | GACTCGACTT | 0.971
77 | TCTCAGCCGT | 0.969
78 | CAGGTATGGT | 0.992
79 | CCGTGACTAA | 1.21
80 | CCTGTACGTG | 1.03
81 | CGGATATTCC | 1.1
82 | TGGAAGTAAG | 0.985
83 | ATTGGATCCT | 1.01
84 | GGTCAGCGTG | 0.986
85 | AGGGCACGC | 0.994
86 | GCAGCAGCGT | 1.04
87 | AATAATTCGC | 1.01
88 | GCTGGATTTT | 1.01
89 | AATAGTCGGA | 0.959
90 | TATATTGGAC | 1.03
91 | AGCCGGTCCC | 1.05
92 | TTAATCGTCC | 1.07

Row | Sequence | switch fluorescence ratio
93 | GTCACTCATC | 1.07
94 | TTAGCAGGCG | 0.984
95 | TGCTATTAAT | 1.06
96 | TCGGTTGGCG | 1.13
97 | GGAGGGCCAT | 0.954
98 | CTGGTCACAT | 0.973
99 | CGTCCTCATT | 1.38
100 | GACACAGCTC | 1.25
101 | CAATGTATAT | 0.965
102 | TTTTCCTTTA | 1
103 | GAGGCTACTA | 1.11
104 | GCCGAAAGGT | 1.04
105 | TAGACAAGCG | 0.953
106 | TGAGTACATT | 1
107 | GTCGATGGTA | 0.968
108 | CGTCGAGCCG | 0.965
109 | ATGATGTCTC | 0.977
110 | CGGGCCCGCA | 1.02
111 | CAAGACGCTT | 1.05
112 | GGTTACTTTC | 1.06
113 | CACGTTTAAT | 1.08
114 | TGGCGTCCGT | 0.987
115 | AATGTAAGCT | 1.02

Row | Sequence | switch fluorescence ratio
116 | GCTACTGTTG | 1
117 | CGGGAGCACA | 1.35
118 | GCACGAGATT | 1.05
119 | TATTTGTACA | 1.05
120 | GAGATTCGTC | 1.03
121 | TAGAAGGGCG | 1.01
122 | TGGAAAAGAG | 1.06
123 | GCTAGAGGAT | 0.996
124 | ATGACACCGT | 1.01
125 | CGGTCAGAT | 1
126 | GATAGGTTT | 1.01
127 | GTTTAGTTTT | 1.03
128 | CATTTGGCTT | 1.02
129 | GTTGTTAGAT | 1.02
130 | TATTACATGC | 1.02
131 | GGTAGTATTA | 1
132 | CAGGAATGTT | 1.03
133 | GAGGTGCGTT | 1
134 | TCCAAGCGAT | 1.26
135 | ACCGGTAATG | 0.984
136 | GTGTTCCCAT | 0.97
137 | TCGTCACACC | 1.07
138 | AAGCTCCCGG | 1.02

Row | Sequence | switch fluorescence ratio
139 | TCAACACGAG | 1.07
140 | AGCGTACATC | 1.12
141 | ACTATAAGGG | 1.08
142 | ACGGCGTGTC | 0.962
143 | GGTCTCTCAG | 0.983
144 | TTTTGCCTCA | 0.995
145 | CTTCCGTATA | 4.24
146 | ACTGTATTAA | 1.19
147 | GCGCGCATAC | 1.73
148 | TAACTGATGC | 0.993
149 | AAAGGGCCAC | 0.973
150 | GAGCTAAATA | 1.09
151 | CCGCACCTT | 2.07
152 | TTTCGAAAC | 1.89
153 | CCAGTTCGGG | 1.04
154 | GCAGTTATAC | 3.63
155 | TAGTCTGACC | 1.03
156 | TTTGCCATGT | 0.986
157 | TTTCGGCCC | 1.06
